Results from the supplement of paper PMC10441789.
The list shows a part of the results. Antibody binding of pooled human sera (four to six donors per pool; dilution not stated) to peptides of the Trypanosoma cruzi antigen TSSA on microarrays. Quantile-normalised fluorescence in arbitrary units, mean of duplicate arrays; higher = more binding. No active / inactive call. The uninfected pools are read here as the healthy donors of the same country. The strongest signals lie near the top of the scale (about 60,000).

tested on: pooled sera of chronic Chagas disease patients, Argentina; assay: antibody binding signal (normalised fluorescence) (arbitrary fluorescence units); higher = stronger serum antibody binding to peptide
Procedure: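 Microarray of 15-residue peptides over residues 30-55 of Trypanosoma cruzi TSSAII, each with 1 to 10 substitutions at naturally variable positions, probed with one serum pool per country.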

Row | Sequence | antibody binding signal
1 | EKKTATGGTPSPPGA | 761
2 | GKDNKTATGGAPSQP | 953
3 | TDNKAAAGEAPSQSG | 402
4 | PSGTDNKTAAGETPS | 12300
5 | EKKTAAGGAPSQPGA | 282
6 | TISTPPSGKDKKAAT | 20600
7 | KENKAATGGAPSPPG | 351
8 | PSGKDKKPATGEAPS | 45200
9 | SGKDKKTAAGEAPSQ | 623
10 | TDNKTAAGGTPSQSG | 1440
11 | DKKAAAGGTPSPPGA | 388
12 | GTENKAAAGGTPSPP | 38200
13 | TEKKPAAGETPSQSG | 1710
14 | KPAAGEAPSPSGASS | 761
15 | ENKAAAGGTPSPSGA | 427
16 | PPSGKDKKPATGEAP | 43200
17 | PSGTDKKPAAGETPS | 5010
18 | KPAAGGAPSQPGASS | 197
19 | DNKPATGGTPSQPGA | 442
20 | NKTAAGETPSPPGAS | 257

Row | Sequence | antibody binding signal
21 | GKDNKPATGGAPSQS | 940
22 | KENKTAAGGTPSPSG | 469
23 | TDNKAATGGAPSQPG | 520
24 | GKDNKTATGETPSPS | 4610
25 | SGKENKAATGGAPSP | 3510
26 | TPPSGTDKKTATGEA | 18300
27 | TDNKTAAGGAPSQPG | 331
28 | KENKTATGGTPSQPG | 324
29 | SGTDKKAAAGGAPSQ | 302
30 | PPSGTENKAAAGEAP | 47500
31 | SGKDKKPATGGAPSP | 1250
32 | GKENKAATGETPSQS | 11500
33 | GTDKKPAAGGAPSPP | 463
34 | TDKKAAAGGAPSQPG | 1610
35 | TPPSGKEKKTATGGT | 6910
36 | ENKAAAGGAPSPPGA | 268
37 | KKTAAGGTPSQSGAS | 234
38 | TPPSGKENKAAAGGA | 10100
39 | GTENKPAAGGAPSPP | 44800
40 | SGKDNKTATGEAPSP | 13500
